Source: PubChem BioAssay AID485281 (National Center for Advancing Translational Sciences (NCATS), 2010)
Screen size: about 350,000 compounds; about 260 (0.074%) were called active. Inconclusive means that the source gave no clear call. Such entries were picked first, then a sample of the others. Calls come from the whole dose curve; as a rule, active = well fitted inhibition curve with a large enough effect; inconclusive = small, poorly fitted or top-dose-only effect; inactive = no such curve, though single readings can be large or run the other way. A potency beside an inconclusive call is a rough fit, not a confirmed value.

target: Ferritin light chain (Equus caballus) (UniProt P02791); assay: qHTS Assay for Identification of Novel General Anesthetics; settings: apoferritin/1-aminoanthracene competitive binding, fluorescence; activity change, negative = displacement: at 77.5 µM (top of the series); note: nearly all actives have a fitted effect of over 20% in size
Outline: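 Concentration-response curves derived by four-parameter Hill fitting of normalized fluorescence, where compounds displaced 1-AMA from 10 uM horse apoferritin following a brief 10 min room-temperature incubation; propofol titration acted as positive control.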
% is set by controls: 0 for no effect and ±100 for the full control effect; potency is the fitted concentration of half-maximal effect; tags give direction and shape of the fitted curve.

Sequence of UniProt P02791 (P02791 whole entry, looked up): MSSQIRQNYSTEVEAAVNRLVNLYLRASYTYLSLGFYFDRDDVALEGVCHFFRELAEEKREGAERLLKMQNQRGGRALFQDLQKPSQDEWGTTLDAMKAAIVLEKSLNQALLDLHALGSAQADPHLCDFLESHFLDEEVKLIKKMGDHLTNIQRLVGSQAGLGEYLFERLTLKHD

Activity change, negative = displacement, inactive:
CCOC(=O)C1=C(C)NC(C)=C(C(=O)OC)[C@@H]1c1cccc([N+](=O)[O-])c1 -10.9% [at 29.3 µM]
O=C1C(Cl)=C(NCCc2ccccc2)C(=O)N1CCc1ccccc1 -6.97%
O=c1oc2ccccc2nc1/C=C(O)/C=C\c1ccccc1 -11.9%
COc1ccc(-c2noc(N3CCN(c4cccc(Cl)c4)CC3)n2)cc1OC 5.33%
CC(C(=O)Nc1ccc(F)c(Cl)c1)N1Cc2ccccc2C1=O (stereo unspecified) -10.2%
CCOc1cc(C(=O)Nc2nnc3n2CCS3)cc(OCC)c1OCC 3.04%
CCCCC(CC)CNC(=O)c1ccc2c(=O)n(CCOC)c(=O)[nH]c2c1 (stereo unspecified) -3.59%
COC(=O)c1sc(S(=O)(=O)N2CCC(C(N)=O)CC2)c(C(=O)OC)c1C -0.0984%
Cc1ncc(S(=O)(=O)c2ccc(Cl)cc2)c(-c2ccccc2)n1 -21.2%
CCOc1cc2sc(N3CCC(C(=O)Nc4ccccc4Cl)CC3)nc2cc1Br -9.33%
CNc1cc([N+](=O)[O-])ccc1N/C=C/C(=O)c1cccs1 -11.6%
COC(=O)CN1C(=S)N(c2ccc(Cl)cc2)C(=O)C1CC(=O)Nc1ccccc1 (stereo unspecified) -18.2%
CC(=O)c1cccc(NC(=O)CSc2nnc3ccc(-c4ccc(C)cc4)nn23)c1 -10.7%
COc1ccc(N=Cc2nc(-c3ccccc3)oc2OC(=O)c2ccccc2)cc1 3.24%
COc1cccc(-c2cc(C(=O)NCc3ccco3)no2)c1 -15.7%
O=C(O)CCCCCCCCCCP(=O)(c1ccccc1)c1ccccc1 -11.1%

Potency, inconclusive:
Cc1ccc(OCC(=O)N/N=C/c2cn[nH]c2-c2ccc(Cl)c(Cl)c2)cc1 31.6 µM [inhibitor, partial curve]
Cc1ccc(NC(=O)COC(=O)CNC(=O)c2ccc3ccccc3c2)c([N+](=O)[O-])c1 44.7 µM [inhibitor, partial curve]
CC(=O)c1ccc(OCCCC(=O)NCCc2ccccc2)cc1 12.6 µM [inhibitor, partial curve]
CCCCCCCCCCOC(=O)Cn1c(COc2cccc(C)c2)[n+](C)c2ccccc21 28.2 µM [inhibitor, partial curve]
CCN(CC)C(=S)SCc1csc(CC(=O)Nc2ccccc2C)n1 56.2 µM [inhibitor, single point]
Cc1cc(OCC(=O)Nc2cc(-c3nc4ccccc4[nH]3)ccc2C)ccc1Cl 7.08 µM [inhibitor, partial curve]
CCc1cc2c(=O)oc(-c3ccccc3F)nc2s1 35.5 µM [inhibitor, partial curve]
CC(=O)c1cccc(S(=O)(=O)N2CCN(c3ccccc3F)CC2)c1 25.1 µM [inhibitor, partial curve]
O=C(COc1cccc2cccnc12)Nc1nccs1 22.4 µM [inhibitor, partial curve]
O=C(CCC(=O)N1CCc2ccccc21)Nc1ccccc1 25.1 µM [inhibitor, partial curve]
O=C(COc1ccccc1F)N1CCCc2ccccc21 10 µM [inhibitor, partial curve]
Cc1ccc(CN2CCC(CNC(=O)c3cc4ccc5cccnc5c4[nH]3)CC2)cc1 3.16 µM [inhibitor, full curve]
COc1ccc(NC(=O)C(c2ccc(OC)cc2)N(C)C(=O)c2cnccn2)cc1 (stereo unspecified) 31.6 µM [inhibitor, partial curve]
Cc1c(Cl)cccc1NCC(=O)NN=C1CCCC1 12.6 µM [inhibitor, partial curve]
Cc1onc(-c2c(F)cccc2Cl)c1C(=O)Nc1nc2ccccc2[nH]1 20 µM [inhibitor, partial curve]
Fc1ccc(CNC(=S)Nc2cccc(Cl)c2)cc1 56.2 µM [inhibitor, single point]
CC1CN/C(=C\C(=O)c2ccccc2)C(=O)N1 (stereo unspecified) 25.1 µM [inhibitor, partial curve]
CCN(CC)CCNc1nc(C(F)(F)F)nc2c1nnn2Cc1ccccc1 28.2 µM [inhibitor, partial curve]
CCN(CC)S(=O)(=O)c1cc(NC(=O)COC(=O)CCC(=O)c2cccs2)ccc1C 25.1 µM [inhibitor, partial curve]
O=C(NCc1ccco1)C1CCN(C(=O)N2CCOc3ccc(Cl)cc32)CC1 25.1 µM [inhibitor, partial curve]
Cc1ccc(NC(=O)C2(C)Cc3ccccc3C(=O)O2)cc1 (stereo unspecified) 22.4 µM [inhibitor, partial curve]
Cc1occc1-c1nnc(SCC(=O)c2c[nH]c3ccccc23)n1C 31.6 µM [inhibitor, partial curve]
O=C(/C=C/c1ccco1)NC(=S)Nc1cccc(-c2nc3ccccc3o2)c1 25.1 µM [inhibitor, partial curve]
COc1ccccc1N1CCN(C(=O)c2cnn(-c3ccc(C)c(C)c3)c2C2CCN(C(=O)OC(C)(C)C)CC2)CC1 3.16 µM [inhibitor, full curve]
Clc1ncc(CSc2ccccc2)s1 14.1 µM [inhibitor, partial curve]
O=C1[C@@H]2[C@H](C(=O)N1Cc1ccco1)[C@H]1C=C[C@@H]2C1 28.2 µM [inhibitor, partial curve]
CCOC(=O)c1c(C)oc2ncnc(NCCCN3CCN(c4cc(C)ccc4C)CC3)c12 35.5 µM [inhibitor, single point]
CCc1c(C)nc2c(OC)cccc2c1Cl 28.2 µM [inhibitor, partial curve]
CCCN(CCC)C(=O)Cn1c(=O)n(-c2ccc(C)cc2)c(=O)c2ccc(C(=O)NCc3ccccc3Cl)cc21 3.16 µM [inhibitor, full curve]

Potency, inactive:
O=S(=O)(Nc1cccc(-c2ccc(N3CCCCCC3)nn2)c1)c1ccccc1F
